According to patent publication EP4610267A1, “CYCLIC DINUCLEOTIDES AND CONJUGATES THEREOF WITH ANTIBODIES” (priority 2024, dated 2025):

B1: mAb5-3.3 (conjugate)
heavy: QVQLQQSGSELKKPGASVKVSCKASGYTFTNYGMNWVKQAPGQGLKWMGWINTYTGEPTYTDDFKGRFAFSLDTSVSTAYLQISSLKADDTAVYFCARGGFGSSYWYFDVWGQGSLVTVSSASTKGPSVFPLAPSSKSTSGGTAALGCLVKDYFPEPVTVSWNSGALTSGVHTFPAVLQSSGLYSLSSVVTVPSSSLGTQTYICNVNHKPSNTKVDKKV[letters of human IgG1 Fc with S375C (EU numbers) left out]
light: DIQLTQSPSSLSASVGDRVSITCKASQDVSIAVAWYQQKPGKAPKLLIYSASYRYTGVPDRFSGSGSGTDFTLTISSLQPEDFAVYYCQQHYITPLTFGAGTKVEIKRTCAAPSVFIFPPSDEQLKSGTASVVCLLNNFYPREAKVQWKVDNALQSGNSQESVTEQDSKDSTYSLSSTLTLSKADYEKHKVYACEVTHQGLSSPVTKSFNRGEC
B2: mAb5-3.13 (conjugate)
heavy: B1 heavy
light: B1 light

Assays:
plasma cytokines = experiment: In vivo plasma cytokine induction after single i.v. injection (multiplex ELISA, Luminex); conditions: single i.v. 5 mg/kg, Balb/C mice, 2, 4, 8 and 20 hours post-injection (Fig. 6, 7)
Protocol: Compound 3.3 was conjugated to the engineered light chain C110 and heavy chain C375 of anti-Her2 mAb (mAb3) as described above (mAb3-3.3). Furthermore, the compound was also conjugated to anti-Her2 mAb (mAb2) via inter-chain Cys (mAb2-3.3). A single intravenous injection of 5 mg/kg mAb2-3.3 (DAR 3.8) and 5 mg/kg mAb3-3.3 (DAR 3.6) was administered to Balb/C mice via tail vein injection. Blood samples were collected from the injected animals at 2, 4, 8, and 20 hours post-injection, and plasma cytokines were measured using multiplex ELISA (Luminex).
Compound 3.3 was conjugated to anti-TROP2 mAb4 via inter-chain Cys and to the engineered light chain C110 and heavy chain C375 of anti-TROP2 mAb5, as described above. […] Blood samples were collected from the injected animals at 2, 4, 8, and 20 hours post-injection, and plasma cytokines were measured using multiplex ELISA (Luminex).

[1] = In vivo payload CDN retention on mAb after i.v. injection (immunoprecipitation and LC-MS); conditions: CD-1 nude mice, anti-TROP2 mAb5 conjugate
[2] = system: TROP2 expressing Bx-PC3 tumor xenograft; experiment: TROP2 expressing Bx-PC3 tumor xenograft model; format: in vivo, CB.17 SCID mice; conditions: single I.V. dose 5mg/kg on day 1 (Fig. 10)
Protocol: Compound 3.3 was conjugated to the engineered light chain C110 and heavy chain C375 of anti-TROP2 mAb (mAb5), following the previously described method. The Bx-PC3 human pancreatic carcinoma cell line was obtained from American Type Culture Collection (ATCC®, CRL-1687™) and maintained in RPMI-1640 medium containing 10% fetal bovine serum, 2 mM glutamine, 100 units/mL penicillin G sodium, 100 µg/mL streptomycin sulfate, 25 µg/mL gentamicin, 10 mM HEPES, 0.075% sodium bicarbonate, and 1 mM sodium pyruvate. The tumor cells were grown in tissue culture flasks in a humidified incubator set at 37 °C and an atmosphere of 5% CO2 and 95% air. On the day of tumor implantation to female CB.17 SCID mice (Charles River Laboratories), the Bx-PC3 cells were harvested during the exponential growth phase and resuspended in phosphate-buffered saline (PBS) and 50% Matrigel™ (BD Biosciences) mixture at 1 × 10^8 cells/mL concentration. Tumors were initiated by subcutaneous implantation of 1 × 10^7 Bx-PC3 cells (in a 0.1 mL suspension) into the right flank of each test animal. Tumors were measured in two dimensions and tumor volumes were calculated from caliper measurements using formula (L × W^2)/2. […]

[3] = system: mouse and human cytokines in HCC1954 tumors; experiment: Intratumoral cytokines in TROP2 positive HCC1954 mouse model (qRT-PCR); format: in vivo, CD-1 Nude mice; conditions: tumors collected 20 h post single i.v. dose 5mg/kg (Fig. 12)
Protocol: Compound 3.3 was conjugated to engineered light chain C110 and heavy chain C375 of anti-TROP2 mAb (mAb5) as described previously. For in vivo testing in the TROP2 expressing HCC1954 breast cancer xenograft mouse model, female CD-1 Nude (CR - Crl:CD1-Foxn1nu) immunodeficient outbred mice (Charles River Laboratories) at 9 to 10 weeks of age were used. HCC1954 cells (ATCC®, CRL-2338™) were cultivated in RPMI-1640 medium containing 10% fetal bovine serum, 2 mM glutamine, 10 mM HEPES, 1 mM sodium pyruvate and 4.5g/L glucose. The cells were grown in a humidified incubator set at 37°C and an atmosphere of 5% CO2 and 95% air. On the day of tumor implantation, the HCC1954 cells were harvested during the exponential growth and resuspended in 50% Geltrex™ (ThermoFisher; A14132-02) prepared in Dulbecco's Phosphate - Buffered Saline (DPBS) at 1 × 10^7 cells/mL. […] Tumors were measured in three dimensions using digital calipers to monitor growth. […]
Tumors were collected 20 h post i.v., and immediately stored in RNAprotect® Tissue Reagent (Qiagen) untill further processing. […] Relative expression of mouse and human cytokines was measured by using Luna Universal One-Step RT-qPCR Kit (Promega) according to the manufacturer protocol. qRT-PCR was run on Light Cycler 480 II (Roche) with annealing time 60°C for all tested primers.

[4] = system: TROP2 expressing HCC1954 breast tumor xenograft; experiment: TROP2 expressing HCC1954 breast tumor xenograft model; format: in vivo, SCID-beige mice
Protocol: Compound 3.3 was conjugated to the engineered light chain C110 and heavy chain C375 of anti-TROP2 mAb (mAb5), following the previously described method. An animal study was conducted using a TROP2-expressing HCC1954 breast cancer xenograft mouse model, with animals being pair-matched when the tumor reached a volume of 100 - 150 mm^3 (designated as day 1). They were then injected with a single intravenous dose of 2.5 or 1 mg/kg of the anti-TROP2 mAb5-3.3 conjugate (DAR 3.6), 2.5 mg/kg of isotype mAb-3.3 conjugate (DAR 3.8), 5 mg/kg of mAb5, or PBS vehicle.
Compound 3.13 was conjugated to engineered light chain C110 and heavy chain C375 of anti-TROP2 mAb5 as described above. For in vivo testing in the HCC1954 breast cancer xenograft mouse model, female SCID-beige mice at 8 to 12 weeks of age (purchased from Charles River Lab) were used for implantation. HCC1954 cells (obtained from ATCC) were cultured in RPMI medium supplemented with 10% fetal bovine serum at 37°C in a humidified incubator with 5% CO2. On the day of implantation, 1 × 10^7 HCC1954 cells were re-suspended in 100µL RPMI1640 serum free media containing 50% Matrigel and implanted subcutaneously in the right flank. After implant, tumors were measured by caliper and mice were weighed two times per week. Tumors were measured in two dimensions and tumor volumes were calculated from caliper measurements using formula (L × W^2)/2. Animals were pair matched when tumor reached volume 100 - 150 mm^3 (designated as day 1) and injected with a single i.v. dose 1 and 0.4 mg/kg anti-TROP2 mAb5-3.13 (DAR 3.6), 5mg/kg unconjugated mAb5 or 1mg/kg isotype mAb-3.13 (DAR 3.8).

[5] = system: TROP2 expressing Colo205 colon tumor xenograft; experiment: TROP2 expressing Colo205 colon tumor xenograft model; format: in vivo, CD-1 nude mice; conditions: single i.v. dose 5mg/kg (Fig. 11)
Protocol: Compound 3.3 was conjugated to the engineered light chain C110 and heavy chain C375 of anti-TROP2 mAb (mAb5), following the previously described method. The COLO-205 human colon adenocarcinoma cell line was obtained from American Type Culture Collection (ATCC®, CCL-222™) and maintained in RPMI-1640 medium containing 10% fetal bovine serum, 2 mM glutamine, 10 mM HEPES, 1 mM sodium pyruvate and 4.5g/L glucose. The tumor cells were grown in tissue culture flasks in a humidified incubator set at 37°C and an atmosphere of 5% CO2 and 95% air. On the day of tumor implantation, the COLO205 cells were harvested during the exponential growth phase and resuspended in 50% Geltrex™ (ThermoFisher; A14132-02) prepared in Dulbecco's Phosphate - Buffered Saline (DPBS) at 6 × 10^7 cells/mL concentration. Tumors were initiated by subcutaneous implantation of 3 × 10^6 COLO205 cells (in a 0.1 mL suspension) into the right flank of female CD-1 nude mice (CR - Crl:CD1-Foxn1nu). Tumors were measured in two dimensions and tumor volumes were calculated using formula (L × W^2)/2. Animals were pair matched when tumor volumes reached 80-140 mm^3 (designated as day 1) and injected with a single i.v. dose of 5mg/kg of anti-TROP2 mAb5-3.3 (DAR 3.6), 5mg/kg isotype mAb-VAP-3.3 (DAR 3.8), 5mg/kg mAb5 or PBS vehicle.

Molecule | plasma cytokine levels (plasma cytokines) | half-life for the warhead retention ([1]; single i.v. bolus 5 mg/kg) | effect on tumor growth [2] | expression of mouse INFβ, IL6, RANTES and IP-10 and human IP10 and RANTES compared to controls [3] | effect on tumor growth ([4]; single i.v. dose 1 mg/kg (Fig. 9)) | effect on tumor growth ([4]; single i.v. dose 2.5 mg/kg (Fig. 9)) | effect on tumor growth [5] | half-life for the warhead retention ([1]; single i.v. bolus […]) | effect on tumor growth ([4]; single i.v. dose 0.4 mg/kg (Fig. 14)) | effect on tumor growth ([4]; single i.v. dose 1 mg/kg (Fig. 14))
B1 | significantly lower | exceeded 10 days | tumor regressions | statistically significant overexpression | tumor growth inhibition | tumor regression | tumor regressions | – | – | –
B2 | – | – | – | – | – | – | – | approximately 12 days | induced regressions | induced regressions
